Assay results as given in PubChem BioAssay AID1347073 (National Center for Advancing Translational Sciences (NCATS), 2019).
The campaign covered roughly 45,000 compounds. About 200 (0.44%) were called active. Another 7% or so got no clear call; they are omitted. Calls come from the whole dose curve; as a rule, active = well fitted activation curve with a large enough effect; inconclusive = small, poorly fitted or top-dose-only effect; inactive = no such curve, though single readings can be large or run the other way. This is one part of the list.

assay: qHTS of TDP-43 Inhibitors: NCGC Sytravon Library Screen; details: yeast TDP-43 toxicity rescue, BacTiter-Glo growth, 24 h; series mostly up to 46.1 µM; growth rescue (activation): at the top concentration; note: 0% is about no effect; nearly all actives have a fitted effect of over 55% in size
Summary of the method: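 TDP-43-expressing yeast, pregrown in raffinose, seeded at OD600 0.02 in galactose medium with compound for 24 hr at 30 deg C. Growth read by BacTiter-Glo luminescence, so rescue of toxicity appears as activation.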

Compound | growth rescue (activation)
CCOC(=O)C(=O)C1=C(N2CCOCC2)/C(=C\c2ccc(F)cc2)CC1 | inactive: 2.88%
Cc1ccccc1N1CCN(C2CCCN(C(=O)c3ocnc3C)C2)CC1 (stereo unspecified) | inactive: 2.13%
O=C(NC(=S)NNS(=O)(=O)c1ccccc1)c1cccnc1 | inactive: -27.6%
COc1ccc(C(=O)C2CCCN(Cc3cccn3-c3ccccn3)C2)c(OC)c1 (stereo unspecified) | inactive: -0.553%
CC1C(=O)Nc2ccccc2N1C(=O)C1CC1 (stereo unspecified) | inactive: 16%
O=C(N/N=C/C=C/c1ccccc1)c1ccccn1 | inactive: 20.5%
O=C(c1ccccc1)N1CCN(C(=O)c2ccc([N+](=O)[O-])cc2)CC1 | inactive: 2.23%
COC(=O)c1ccc(CNC(=O)N2CCN(S(=O)(=O)c3ccc(C)cc3)CC2)cc1 | inactive: 1.76%
Cc1ccc(C)c(N(CC(=O)NC2CCCC2)C(=O)CCCC(=O)Nc2ccccn2)c1 | inactive: -8.08%
CCc1cccc(CC)c1-n1c(SCC(=O)c2c(N)n(C)c(=O)n(C)c2=O)nnc1-c1cccnc1 | inactive: 10.8%
COc1cccc(OCC(=O)N(C)Cc2nc(-c3ccccc3)no2)c1 | inactive: 2.79%
COc1ccc(NC(=O)c2cc(-c3cc(Cl)ccc3C)n[nH]2)c(OC)c1 | inactive: 9.78%
Cc1ccc(Nc2c(-c3ccc(C)o3)nc3ncccn23)cc1 | inactive: 5.5%
COc1ccc(OCCN2CCC(C(=O)NC(c3ccsc3)c3ccccc3C)CC2)cc1 (stereo unspecified) | inactive: 7.49%
O=C(Nc1cccc(Oc2ccccc2)c1)C1Cc2c(-c3cccc(F)c3)ccnc2O1 (stereo unspecified) | inactive: 19.9%
Cc1nc(Cc2nnc(SCC(=O)N3CC(=O)Nc4ccccc43)o2)cs1 | inactive: 2.53%
O=C(Nc1ccc2c(c1)CN(Cc1ccc(CO)o1)CC2)c1ccc(C(F)(F)F)cc1 | inactive: -13.6%
CS(=O)(=O)N1CCN(C(=O)c2ccncc2)CC1 | inactive: 15.3%
Cc1ccc(NC(=O)c2cc(C)nn2-c2ccccc2)cc1 | inactive: 28.3%
COC(=O)CN1C(=O)C(C)(C)Oc2ccc(C(=O)Nc3cccc(OC)c3)cc21 | inactive: 13%
Cc1cc(C(=O)CSc2nnc(-c3ccco3)o2)c(C)n1-c1ccc2c(c1)OCCO2 | inactive: 17%
CCN(C(=O)COC(=O)c1c(C)noc1C)C1CCS(=O)(=O)C1 (stereo unspecified) | inactive: 7.62%

Compound | growth rescue (activation)
O=C(/C=N/NC(=O)c1ccccc1Br)c1ccccc1 | inactive: 11.5%
CCOC(=O)C1CCN(C(=O)Nc2ccc3nc(-c4ccco4)c(-c4ccco4)nc3c2)CC1 | inactive: 15.5%
CC1(C(=O)Nc2ccc3c(c2)OCO3)Cc2c(-c3ccccc3)ccnc2O1 (stereo unspecified) | inactive: -4.57%
CN1CCN(CC(C)(C)NS(=O)(=O)c2ccccc2)CC1 | inactive: 11.4%
CCCS(=O)(=O)NC(=O)C1(C)CCCN(C(=O)/C=C/c2ccccc2)C1 (stereo unspecified) | inactive: -2.77%
O=C(Nc1ccc([N+](=O)[O-])cn1)C1CCCCC1 | inactive: 20.1%
COc1cccc(Nc2nc(-c3cccs3)nc3ccccc23)c1 | inactive: -23.6%
O=C(CCc1nnc(CCCCc2ccccc2)o1)NC1CCCC1 | inactive: 10.2%
CC(=O)c1cc(-c2ccc(F)cc2)n(CCC(=O)Nc2cccc(C)n2)c1C | inactive: -10.3%
O=C(O)c1ccc(-n2nnc3ccccc32)c([N+](=O)[O-])c1 | inactive: 13.5%
O=C(O)c1ccccc1/C=N/N1CCN(C2c3ccccc3-c3ccccc32)CC1 | inactive: 7.41%
CC(C)(C)c1ccc(CC(=O)N2CCC2(C)C(=O)N2CCCCC2)cc1 (stereo unspecified) | inactive: 1.83%
COc1ccc(CNC(=O)COC(=O)c2cccs2)cc1 | inactive: 19.9%
N#Cc1nc(-c2ccc(OCc3ccccc3)cc2)oc1NCc1cccnc1 | inactive: -10%
NC(=O)NC(=O)CN1c2cccc3cccc(c23)S1(=O)=O | inactive: 5.3%
CCC(=O)NCCNC(=O)c1c(SC)nsc1SC | inactive: 0.918%
COC(=O)NCC(c1cccnc1)N1CCN(c2ccccc2OC)CC1 (stereo unspecified) | inactive: 17.4%
CCCNC(=O)CCCCn1c(=S)[nH]c2c([nH]c3ccc(OC)cc32)c1=O | inactive: -7.1%
O/N=C(\c1ccccc1)C(O)c1ccccc1 (stereo unspecified) | inactive: -0.0583%
CN(C)S(=O)(=O)c1cccc(C(=O)Nc2n[nH]c(C(F)(F)F)n2)c1 | inactive: 10%
CCN(CC(=O)NC1CCS(=O)(=O)C1)C(=O)/C=C/c1cccs1 (stereo unspecified) | inactive: -9.99%
O=C(CN1CCN(S(=O)(=O)c2ccccc2F)CC1)N1CCc2ccccc2C1 | inactive: -9.3%

Compound | growth rescue (activation)
CCOc1ccc(OCC)c(Nc2nc3ccccc3n3nnnc23)c1 | inactive: 6.79%
COc1ccc(-c2nc(NC(=O)C3CC(=O)N(c4ccc5c(c4)OCCO5)C3)sc2C)cc1 (stereo unspecified) | inactive: 9.88%
COc1ccccc1NS(=O)(=O)c1ccc2oc(SCc3ccc(C#N)cc3)nc2c1 | inactive: 5.56%
O=C(Nc1ccccc1)/C(=C/c1ccc([N+](=O)[O-])cc1)NC(=O)c1ccco1 | inactive: -9.91%
CCCN1CCN(CCCNC(=O)C2CCN(c3nnc(-n4cccc4)s3)CC2)CC1 | inactive: -7.39%
Cc1ccnc(SCC(=O)Nc2sc3c(c2C#N)CCCC3)n1 | inactive: 10.9%
CCN(CC)S(=O)(=O)c1cccc(C(=O)N[C@H](C(=O)NNC(=O)c2ccccc2)C(C)C)c1 | inactive: 7.7%
COc1ccc(/C=C/c2c([N+](=O)[O-])c(=O)n(C)c(=O)n2C)c(OC)c1OC | inactive: 0.985%
COc1ccc(S(=O)(=O)N2CCN(CC(=O)N3CCOCC3)CC2)cc1OC | inactive: 9.96%
CCCc1nnc(NC(=O)C2CCN(C(=O)c3ccco3)CC2)s1 | inactive: -3.1%
O=C(O)CCCC(=O)NNc1ncnc2ccccc12 | inactive: -1.32%
COc1ccc(N(CC(=O)NCCOc2ccccc2)S(=O)(=O)c2ccc(C)cc2)cc1 | inactive: -2.65%
CCc1ccc(N(C(=O)c2csnn2)C(C(=O)NC(C)(C)C)c2cccnc2)cc1 (stereo unspecified) | inactive: 8.26%
CC(C)C(=O)N[C@H]1CCC2C3CC=C4C[C@@H](O)CC[C@]4(C)C3CC[C@@]21C (stereo partly specified) | inactive: -1.06%
O=C1CN(C(=O)COC(=O)c2ccccc2O)c2ccccc2N1 | inactive: -0.578%
CC(=O)c1cccc(NC(=O)N2CCC(C(=O)c3ccc(F)cc3)CC2)c1 | inactive: -9.37%
CCC(=O)Nc1ccc(C2C(=O)c3ccccc3C2=O)cc1 | inactive: -13.2%
C/C(=C\C(=O)OCC(=O)NCc1ccccc1)C(=O)OCC(=O)NCc1ccccc1 | inactive: -0.0188%
COc1ccc(Cl)c(-c2cc(C(=O)Nc3ccccc3)[nH]n2)c1 | inactive: 1.2%
CN1C(=S)SC2CS(=O)(=O)CC21C (stereo unspecified) | inactive: 3.27%
CCCCC(CC)C(=O)NCC(C)NC(=O)C(CC)CCCC (stereo unspecified) | inactive: 13.8%
CCC(C)C(=O)Nc1cc(Cl)ccc1C(=O)O (stereo unspecified) | inactive: 13.7%

Compound | growth rescue (activation)
COc1ccc([N+](=O)[O-])cc1NC(=O)CSc1nc(C)c(C)c(C)n1 | inactive: 0.83%
COc1cccc(CNC(=O)CSc2cc(=O)n(C)c3ccccc23)c1 | inactive: 16.2%
Cc1cccc(N2CCN(C(=O)CCc3nc4ccccc4c(=O)[nH]3)CC2)c1C | inactive: 15.8%
CN(C)S(=O)(=O)c1cccc(NC(=O)CCNC(=O)c2ccccc2Cl)c1 | inactive: 1.79%
O=c1[nH]ncc(N2CCCC2)c1Cl | inactive: 2.19%
Cc1ccc(Nc2nc(-c3ccc(S(=O)(=O)N4CCOCC4)cc3)cs2)cc1Cl | inactive: -12.2%
O=C(CCC(=O)c1ccc(F)cc1)Nc1cc(Cl)cc(Cl)c1 | inactive: 18.6%
O=C(O)CSc1nnc(COc2ccc(Br)cc2)n1-c1ccccc1 | inactive: 6.48%
COc1cccc(OC)c1C(=O)Nc1ccc([N+](=O)[O-])cn1 | inactive: 19.6%
O=C(c1cc(S(=O)(=O)N2CCOCC2)ccc1Cl)N1CCCCC1CO (stereo unspecified) | inactive: 3.67%
Cc1ccccc1CSc1nnc([C@@H]2CCCN2)o1 | inactive: 4.34%
Cc1onc(-c2ccccc2)c1C(=O)OCC(=O)N(C)c1ccccc1 | inactive: 13.1%
Cc1ccc(N(CC(=O)NC2CCCC2)C(=O)CCC(=O)Nc2ccccn2)cc1C | inactive: 7.76%
CC(=O)Oc1ccc(C)cc1N1C(=O)c2ccc(C(=O)O)cc2C1=O | inactive: -10.3%
COc1ccc(-c2nc(S(=O)(=O)c3ccc(Cl)cc3)c(N3CCCCCC3)o2)cc1 | inactive: -1.33%
COc1ccc(-n2nc(C(=O)NCC(=O)NCCCN3CCN(C)CC3)c3ccccc3c2=O)cc1OC | inactive: -17.2%
CC(=O)Nc1ccc(S(=O)(=O)NCC2CCC(C(=O)NCCCN3CCCC3=O)CC2)cc1 (stereo unspecified) | inactive: 15.7%
O=S(=O)(NCc1cccnc1)c1ccc(Br)c2ccccc12 | inactive: 20.1%
O=C(O)c1ccccc1C(=O)c1cccs1 | inactive: 12.3%
COc1ccc(-n2c(=S)[nH]c3cc(C(=O)NCc4ccco4)ccc3c2=O)cc1OC | inactive: -0.459%
C[C@H](NC(=O)c1ccco1)C(=O)OCC(=O)N1CC(=O)Nc2ccccc21 | inactive: -1.02%
CN(C)c1ccc(-c2ccnc3c2CC(C)(C(=O)Nc2ccc4c(c2)OCO4)O3)cc1 (stereo unspecified) | inactive: 8.36%

Compound | growth rescue (activation)
COc1cc(NC(=O)c2ccccc2F)ccc1NC(=O)c1ccccc1Cl | inactive: -2.94%
CC(C)Oc1ccc(C2CC(=O)N(c3cccc(/C=C/C(=O)O)c3)C2=O)cc1 (stereo unspecified) | inactive: 11.1%
C=CCn1c(SCC(=O)N(C)C2CCCCC2)nnc1C1CC1 | inactive: 15%
Cc1cccc(Nc2nnc(SCC(=O)NCC3CCCO3)s2)c1 (stereo unspecified) | inactive: 5.47%
CCN(C(=S)NC(=O)c1ccccc1Br)C1CCCCC1 | inactive: 8.45%
CCCOC(=O)Nc1ccc(S(=O)(=O)Nc2ncccn2)cc1 | inactive: 5.21%
NS(=O)(=O)c1cc(C(=O)N=Nc2c(O)[nH]c3ccccc23)ccc1Cl | inactive: -4.45%
Cc1ccc(S(=O)(=O)N2CCN(S(=O)(=O)c3ccc4c(c3)OCCO4)CC2)cc1 | inactive: -31.3%
CCn1cc2nc(SCC(=O)Nc3ccc(OC)cc3OC)n(Cc3ccc(OC)cc3)c(=O)c2n1 | inactive: 7.91%
CCCC(=O)N1CCC1(C)C(=O)NS(=O)(=O)c1ccc(F)cc1F (stereo unspecified) | inactive: -2.46%
COCCNC(=O)C1CCCN(C(=O)C2(c3ccc(Cl)cc3)CCCC2)CC1 (stereo unspecified) | inactive: 1.63%
Cc1nc2cc(-c3ccc(Cl)cc3)nn2c(NCCN(C)C)c1C | inactive: 1.99%
COc1ccc(CCNC(=O)CN2C(=O)CCSc3ccccc32)c(OC)c1 | inactive: 5.3%
N#CCC(=O)Nc1ccc(C(=O)NNC(=S)NC2CC2)cc1 | inactive: 0.0567%
O=C(COc1ccc(S(=O)(=O)N2CCCCC2)cc1)NCC1CCCO1 (stereo unspecified) | inactive: -2.43%
Cc1ccnc(Cc2ccccc2)n1 | inactive: 1.62%
O=C(C1CCCN(S(=O)(=O)c2ccc(F)cc2)C1)N1CCCC1 (stereo unspecified) | inactive: 23.2%
CC(C)(C)c1ccc(C(=O)N2CCC(C(=O)NC3CCCCCC3)CC2)cc1 | inactive: 24.8%
